Read counts are not given, so values of variants with three or more changes are uncertain.

First the molecules themselves.
B1: LINE1-full (parent)
chain: UACGUAGGUGGUUUUCCCCUGAUAGUGCUAAGGGGGCCUGGAAGUUUGGACUGGGCAGAGCUCAACACAGCGUGGCAAAGUGGCUGUGGCUAGACUGCCUCUCUGGAUUCCUCGUCACUCAGCAGGGCAUCUCUGAGAGAAAUGCC

The variants in this data set derive from B1. The experiment in a line: self-cleavage, relative activity (ratio to wild type); higher = more cleavage; in vitro, sequencing; the parent is a self-cleaving ribozyme.
For UACGUAGGUGGUUUUCCCCUGAUAGUGCUAAGGGGGCCUUGGAGCUUGGACUGGGCAGAGCUCAACACAGCGUGGCAAAGUGGCUGUGGCUAGACUGCCUCUCUGGAUUCCUCGUCACUCAGCAGGGCAUCUCUGGGAGAAAUGCC, the self-cleavage came to 0.99.

As for UACGUAGGUGGUUUUCCCCUGAUAGUGCUAAGGGGGCCUUGAAGUUUGGACUGGGCAGAGCUCAACACAGCGUGGCAGAGUGGCUGUGGCUAGCCUGCCUCUCUGGAUUCCUCGUCACUCAGCAGGGCAUCUCUGAGAGAAAUGCC, the self-cleavage was determined as 0.14.

With UACGUAGGUGGUUUUCCCCUGAUAGUGCUAAGGGGGCCGGGAAGUAUGGACUGGGCAGAGCUCAACACUGCGUGGCAAAGUGGCUGUGGCUAGACUGCCUCUCUGGAUUCCUCGCCACUCAGCAGGGCAUCUCUGAGAGAAAUGCC, the self-cleavage is 0.

As to UACGUAGGUGGUUUUCCCCUGAUAGUGCUAAGGGGGCCUUGAAGUUUGGACUGGGCAGAGCUCAACACAGCGUGGCAAGGUGGCUGUGGCUAGACUGCCUCUCUGGAUUCCUCGUCACUCAGCAGGGCAUCUCUGAGAGGAAUGCC, the self-cleavage was 1.06.

As to UACGUAGGUGGUUUUCCCCUGAUAGUGCUAAGGGGGCCUAGAAGUUUGGACUGGGCAGAGCUCAACACAGCGUGGCAAAGUGGCUGUGGCUGGACUGCCCCUCUGGAUUCCUCGUCACUCAGCAGGGCAUCUCUGAGAGAAAUGCC, the self-cleavage was determined as 0.09.

For UACGUAGGUGGUUUUCCCCUGAUAGUGCUAAGGGGGCCGGGAAGUUUGGACUGGGCAGAGCUCAACACAGCGUGGCAAAGUGGCUAUGGCUAGACUGCCUCUCUGGAUUCCCCGUCACUCAGCAGGGCAUCUCUGGGAGAAAUGCC, the self-cleavage stood at 0.15.

Take UACGUAGGUGGUUUUCCCCUGAUAGUGCUAAGGGGGCCUAGAAGUUUGGACUGGGCAGAGCCCAACACAGCGUGGCAAAGUGGCUGUGGCUAGACUGCCUCUCUGGAUUCCUCGUCUCUCAGCAGGGCAUCUCUGAGAGAAAUGCC: the self-cleavage is 0.04.

Turning to UACGUAGGUGGUUUUCCCCUGAUAGUGCUAAGGGGGCCUAGAAGUUUGGACUGGGCAGAGCUCAACACAGCGAGGCAAAGUGGCUGUGGCUAGACAGCCUCUCUGGAUUCCUCGUCACUCAGCAGGGCAUCUCUGAGAGAAAUGCC, the self-cleavage is 0.01.

With UACGUAGGUGGUUUUCCCCUGAUAGUGCUAAGGGGGCCUAGAAGUUUGGACUGGGCAGAGCUCGACACAGCGUGGCAAAGUGGCUGUGGCUAGACUGCCUCUCUAGAUUCCUCGUCACUCAGCAGGGCAUCUCUGAGAGAAAUGCC, the self-cleavage was 0.12.

For UACGUAGGUGGUUUUCCCCUGAUAGUGCUAAGGGGGCCUGAAAGUUUGGACUGGGCAGAGCUCAACGCAGCGUGGCGAAGUGGCUGUGGCUAGACUGCCUCUCUGGAUUCCUCGUCACUCAGCAGGGCAUCUCUGAGGGAAAUGCC, the self-cleavage came out at 0.64.

For the variant UACGUAGGUGGUUUUCCCCUGAUAGUGCUAAGGGGGCCUGAAAGUUUGGACUGGGCAGAGCUCAACACAGCGUGGCAAAGUGGUUGCGGCUAGACUGCCUCUCUGGAUUCCUCGUCACUCAGCAGGGCAUCCCUGAGAGAAAUGCC, the self-cleavage turned out to be 0.04.

Turning to UACGUAGGUGGUUUUCCCCUGAUAGUGCUAAGGGGGCCUAGAAAUUUGGACUGGGCAGAGCUCAACACAGCGUGGCAAAGUGGCUGUGGCUAGACUGCCUCUCUGGAUUCCUCGUCACUUAGCAGGGCAUCUCUGAGAGAAAUGCC, the self-cleavage was 0.88.

In the case of UACGUAGGUGGUUUUCCCCUGAUAGUGCUAAGGGGGCCUAGAAGUUUGGACUGGUCAGAGCUCAACACAGCGUGGCAAAGUGGCUGUGGCUAGACAGCCUCUCUGGAUUCCUCGUCACUCAGCAGGGCAUCUCUGAGAGAAAUGCC, the self-cleavage turned out to be 0.02.

With UACGUAGGUGGUUUUCCCCUGAUAGUGCUAAGGGGGCCGGGAAGUUUGGACUGGGCAGAGCUCAACACAGCAUGGCAAAGUGGCUGUGGCUAGACUGCCUCUCCGGAUUCCUCGUCACUCAGCAGGGCAUCUCUGAGAGAAAUGCC, the self-cleavage was found to be 0.84.

For the variant UACGUAGGUGGUUUUCCCCUGAUAGUGCUAAGGGGGCCGGGAAGUUUGGACUGGGCAGAGCUCAACACAGCGUGGCAAAGUGGCUGUGGGUAGACUGCCUCUCUGGAUUCCUCGUCACUCAGCAGGGCAUCUCUGAGAGUAAUGCC, the self-cleavage was 0.11.

On to UACGUAGGUGGUUUUCCCCUGAUAGUGCUAAGGGGGCCUAGAAGUUUGGGCUGGGCAGAGCUCAACACAGAGUGGCAAAGUGGCUGUGGCUAGGCUGCCUCUCUGGAUUCCUCGUCACUCAGCAGGGCAUCUCUGAGAGAAAUGCC, for which the self-cleavage was 0.07.

In the case of UACGUAGGUGGUUUUCCCCUGAUAGUGCUAAGGGGGCCGGGAAGUUUAGACUGGGCAGAGCUCAACACAGCGUGGCAAAGUGGCUGUGGCUAGACCGCCUCUCUGGAUUCCUCGUCACUCAGCAGGGCAUCUCUGAGAGAAAUGCC, the self-cleavage was found to be 0.09.

For UACGUAGGUGGUUUUCCCCUGAUAGUGCUAAGGGGGCCUAGAAGUUUGGACUGGGCAGAGCCCAACACGGCGUGGCAAAGUGGCUGUGGCUAGACUGCCUCUCUGGAUUCCUCGCCACUCAGCAGGGCAUCUCUGAGAGAAAUGCC, the self-cleavage was 0.08.

Consider UACGUAGGUGGUUUUCCCCUGAUAGUGCUAAGGGGGCCUAGAAGUUUGGACCAGGCAGAGCUCAACACAGCGUGGCAAAGUGGCUGUGGCUAGACUGCCCCUCUGGAUUCCUCGUCACUCAGCAGGGCAUCUCUGAGAGAAAUGCC, for which the self-cleavage is 0.83.

Consider UACGUAGGUGGUUUUCCCCUGAUAGUGCUAAGGGGGCCUGAAAGUUUGGACUGGGCUGAGCUCAACACAGCGAGGCUAAGUGGCUGUGGCUAGACUGCCUCUCUGGUUUCCUCGUCACUCAGCAGGGCAUCUCUGAGAGAAAUGCC, for which the self-cleavage was determined as 0.04.

In the case of UACGUAGGUGGUUUUCCCCUGAUAGUGCUAAGGGGGCCUUGAAGCUUGGACUGGGCAGAGCUCAACACAGCGUGGCAAAGUGGCUGUGGCUAGUCUGCCUCUCUGGAUUCCUCGUCACUCAGCAGGGCAUCUCUGAGAGAAAUGCC, the self-cleavage was determined as 0.37.

Turning to UACGUAGGUGGUUUUCCCCUGAUAGUGCUAAGGGGGCCUUGAAGUUUGGACUGGGCAGAGCUCAACACAGCGUGGCGAAGUGGCUGUGGCUAGACUGCCUCUCUGGAUUCCUCGACACUCAGCAGGACAUCUCUGAGAGAAAUGCC, the self-cleavage came out at 2.39.

As for UACGUAGGUGGUUUUCCCCUGAUAGUGCUAAGGGGGCCUAGAAGUUCGGACUGGGCAGAGCUCAACACAGCGUGGCAAAGUGGCUGUGGCCAGACUGCCUCUCUGGAUUCCUCGACACUCAGCAGGGCAUCUCUGAGAGAAAUGCC, the self-cleavage amounted to 0.61.

As for UACGUAGGUGGUUUUCCCCUGAUAGUGCUAAGGGGGCCUAGAUGUUUGGACUGGGCAGAGCUCAACACAGCGUGGCAAAGUGGCUGUGGCUAGACUGCCUCUCUGGAUUCCUCGUCACCCAGCAGGGCAUCCCUGAGAGAAAUGCC, the self-cleavage is 1.62.

Turning to UACGUAGGUGGUUUUCCCCUGAUAGUGCUAAGGGGGCCUUGAAGAUUGGACUGGGCAGAGCUCAACACAACGUGGCAAAGUGGCUGCGGCUAGACUGCCUCUCUGGAUUCCUCGUCACUCAGCAGGGCAUCUCUGAGAGAAAUGCC, the self-cleavage came to 0.01.

In the case of UACGUAGGUGGUUUUCCCCUGAUAGUGCUAAGGGGGCCGGGAAGUCUGGACUGGGCAGAGCUCAACACAGCGUGGCAAAGUGGCUGUGGCUAGACUGCCUCUCUGGACUCCUCGUCACUCAGCAGGGCAUCUCUGGGAGAAAUGCC, the self-cleavage was 0.

Regarding UACGUAGGUGGUUUUCCCCUGAUAGUGCUAAGGGGGCCUAGAAGUUUGGGCUGGGCAGAGCUCAACACAGCGUGGCAAAGUGGCUGUGGCUAGACUGCCUCUCUGGAUUCCUCGUCACACAGCAGGGCAUCUCUGAGAGAAAUGCC, the self-cleavage is 0.72.

As for UACGUAGGUGGUUUUCCCCUGAUAGUGCUAAGGGGGCCGGGAAGUUUGGACUGGGCAGAGCCUAACACAGCGUGGCAAAGUGGCUGUGGCUAGACUGCCUCUCUGGAUUCCUCGUCACUCAGCAGGGCAUCUCUGAGAGAAAUGCC, the self-cleavage stood at 0.08.

As for UACGUAGGUGGUUUUCCCCUGAUAGUGCUAAGGGGGCCUAGAGGUUUGGACUGGGCAGAGCUCAACGCAGCGUGGCAAAGUGGCUGUGGCUAGACUGCCUCUCUGGAUUCCUCGUCACUCAGCAGGGCAUCUCUGAGAGAAAUGCC, the self-cleavage came to 0.13.

With UACGUAGGUGGUUUUCCCCUGAUAGUGCUAAGGGGGCCUGAAAGUUUGGACUGUGCAGAGCUCAACACAGCGUGGCAAAGUGGCUGUGGCUAGACUGCCUCUCUGGGCUCCUCGUCACUCAGCAGGGCAUCUCUGAGAGAAAUGCC, the self-cleavage was 1.17.

With UACGUAGGUGGUUUUCCCCUGAUAGUGCUAAGGGGGCCUAGAAGUUUGGACUGGGCAGAGCUCAACACAGCGUGGCAAAGUGGCUGUGGCUAGACUGCCUCUCUGGACUCCUCGUCACUCAGCAGGGCAUCUCCGAGAGAAAUGCC, the self-cleavage worked out at 0.86.

Regarding UACGUAGGUGGUUUUCCCCUGAUAGUGCUAAGGGGGCCGGGAAGCUUGGACUGGGCAGAGCCCAACACAGCGUGGCAAAGUGGCUGUGGCUAGACUGCCUCUCUGGAUUCCUCGUCACUCAGCAGGGCAUCACUGAGAGAAAUGCC, the self-cleavage was determined as 0.

As for UACGUAGGUGGUUUUCCCCUGAUAGUGCUAAGGGGGCCUUGAAGCUUGGACUGGGCAGAGCUCAACACAGCGUGGCAAAGCGGCUGUGGCUAGACUGCCUCUCUGGAUUCCUCGUCACUCAGCAGGGCAUCUCUGAGAGAAAUGCC, the self-cleavage came out at 1.16.

Take UACGUAGGUGGUUUUCCCCUGAUAGUGCUAAGGGGGCCGGGAAGUUUGGACCGGGCAGAGCUCAACACAGCGUGGCAGAGUGGCUGUGGCUAGACUGCCUCUCUGGAUUCCUCGUCACUCAGCAGGGCAUCUCUGAGAGAAAUGCC: the self-cleavage stood at 1.53.

As for UACGUAGGUGGUUUUCCCCUGAUAGUGCUAAGGGGGCCUAGAAGUUUGGACUGGGCAGAGCUCAGCACAGCGUGGCAGAGUGGCUGUGGCUAGACUGCCUCUCUGGAUUCCUCGUCGCUCAGCAGGGCAUCUCUGAGAGAAUUGCC, the self-cleavage worked out at 0.

Take UACGUAGGUGGUUUUCCCCUGAUAGUGCUAAGGGGGCCUCGAAGUUUGGACUGGGCAGAGCUCAACUCAGCGUGGCAAAGUGGCUGUGGCUAGACUGCCUCUCUGGAUUCCUCGUCACUCAGCAGGGCAUCUCUGUGAGAAAUGCC: the self-cleavage turned out to be 0.12.

On to UACGUAGGUGGUUUUCCCCUGAUAGUGCUAAGGGGGCCUCGAAGUUUGGGCUGGGCAGAGCUCAACACAGCGUGGCAAAGUGGCUGUGGCUAGACCGCCUCUCUGGAUUCCUCGUCACUCAGCAGGGCAUCUCUGAGAGAAAUGCC, for which the self-cleavage came out at 0.

For UACGUAGGUGGUUUUCCCCUGAUAGUGCUAAGGGGGCCUUGAAGUUUGGACUGGGCAGAGCUCAACACAGCGUGGCAAAGUGGCUGUGGCUAGACUGCCUCUCUGGAUUCCUCGUCACUCAGCAGGGCAUCUCAGAAAGAAACGCC, the self-cleavage came out at 0.97.

Turning to UACGUAGGUGGUUUUCCCCUGAUAGUGCUAAGGGGGCCUUGAAGCUUGGACUGGGCAGAGCUCAACACGGCGUGGCAAAGUGGCUGUGGCUAGACUGCCUCUCUGGAUUCCUCGUCACUCAGCAGGGCAUCUCUGAGAGAAAUGCC, the self-cleavage turned out to be 0.27.

For the origin of these results see the RNAGym collection of RNA variant scans (doi:10.7554/elife.90254).
